# Experimental data: paper PMC12136788
# This is one part of the list.
# B1: chr15:64983782:64983783:-_ENSG00000180304_ENST00000326005|perfect_dup|FALSE|FALSE (ssRNA)
# RNA: GGGAGUUCUACAGUCCGACGAUCCCUGGAACAAUGUGCCUGCAGCACUGGAGCUGGGGACAGUUACUCAAAGGCAAAAUACUACUGUCCUGGGUGUUUAUCAUCCUCGGCGGCUCUGCUCAGGGUGGGAGGAGGCGGCGCAGGCAACAGAGGAUUGAGCAUCA
# B2: 46067222_46067342_971_CDS_ENSMUSG00000015880_ENSMUST00000117396|mouse|control|control (ssRNA)
# RNA: GGGAGUUCUACAGUCCGACGAUCGAGAGGAGUCAUUGAGAAUAAGGAAUGGAGAACGGAGACUGCUACAUCAGAAGAAUUUUCCACAUCCAACCGAUGAAGAAACUCUAGAAUAUUCCCUUCAGUGAAACGCAACCAGCCUUGCAACAGAGGAUUGAGCAUCA
# B3: chr12:3252685:3252686:-_ENSMUSG00000020671_ENSMUST00000021001|perfect_dup|FALSE|FALSE (ssRNA)
# RNA: GGGAGUUCUACAGUCCGACGAUCUAACGUGAGGAACGCCUUUUCGAUGUUUAUAUUUGCUUUUGCACUAGUCUCAAAAAACCUAAUACCAUGCUCCCUUGCAAUCUGUUCUCCUUUUCCUUUAGGUACAACUCUUUUGUCGUCCAACAGAGGAUUGAGCAUCA
# B4: chr1:163117052:163117053:-_ENSG00000143248_ENST00000313961|hu_mus|FALSE|FALSE (ssRNA)
# RNA: GGGAGUUCUACAGUCCGACGAUCACACAGCCUGUGGUUUGCCUAUGUUUGUGUAUCUUGGAGCAAAGCUGCUAUGGAGAACUGUGCAGGUGCCUGGGAGGAUGCUGUGUUGCUACAAAGGAUGUAACUCAACUCACAGGGCAACAACAGAGGAUUGAGCAUCA
# B5: chr18:45374997:45374998:-_ENSG00000175387_ENST00000586040|hu_mus|FALSE|FALSE (ssRNA)
# RNA: GGGAGUUCUACAGUCCGACGAUCCGAGGGCUGUGACGCAUGGAAGGUCUCUCCAACCCUCUGGUUUAGUUCAUAGUAUGCGAUUGAACACCAGAAUGCAGGUUCCGAGUAAGUAACUGGCUGCAAAUCCAAGCUGUGAUUAACCAACAGAGGAUUGAGCAUCA
# B6: chr7:149068622:149068623:-_ENSMUSG00000025139_ENSMUST00000001950|mus_hu|mus_mus_mus_hu_False|28_98 (ssRNA)
# RNA: GGGAGUUCUACAGUCCGACGAUCGUGAGGCCUCUGAGUGAGGUUCCUGGUCUGUCCUGGGUUAGAGUUGUUAAUAUCACGGAACAUACCAUCUAGAACGUUCCAGUCUGCCUGACUACCUUCAUUCCCAAUGGAGAAGAAAUCCAACAGAGGAUUGAGCAUCA
# Target: T1, UNK ZnF1-3 (human, UniProt Q9C0B0 31-174)
# T1 sequence: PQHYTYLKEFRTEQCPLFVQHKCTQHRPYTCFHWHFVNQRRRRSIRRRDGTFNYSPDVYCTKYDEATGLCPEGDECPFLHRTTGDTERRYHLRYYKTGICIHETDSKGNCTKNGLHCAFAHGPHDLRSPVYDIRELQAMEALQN
# Experiment: nsRBNS (natural sequence RNA bind-n-seq); RBNS binding buffer (assumed for nsRBNS): 25 mM Tris pH 7.5, 150 mM KCl, 3 mM MgCl2, 0.01% Triton X-100, 500 ug/ml BSA, 20 U/ml SUPERase-In, 4 C; UNK is unkempt and MSI1 is Musashi-1; names of the RNAs are library labels; protein concentration not given here; high values mean tight binding
row,Binder,binding signal [enrichment R]
1,B1,1.19
2,B2,1.99
3,B3,0.481
4,B4,1.71
5,B5,0.996
6,B6,0.689
